Some of the results follow.
Columns and labels:
Assay in all cases: glycan array binding signal (z-score within array); higher = stronger binding
Settings in all cases: glycan notation: IUPAC condensed, linker removed
[1] = target: Neu5Ac(a2-3)Gal(b1-4)GlcNAc(b1-3)[Neu5Ac(a2-3)Gal(b1-4)GlcNAc(b1-6)]GalNAc
Summary of the method: (§1)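 Columns mapping to the same glycan were averaged after glycan names were converted to IUPAC-condensed notation. The data come from 3228 arrays in the Consortium for Functional Glycomics database, limited to those with an available protein sequence. Binding is reported as a within-array Z-score averaged across arrays of one protein sequence and across linkers.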

[2] = target: Neu5Ac(a2-3)Gal(b1-4)GlcNAc(b1-6)GalNAc
Summary of the method: as §1

[3] = target: Neu5Ac(a2-3)Gal(b1-4)GlcNAc(b1-6)[Gal(b1-3)]GalNAc
Summary of the method: as §1

[4] = target: Neu5Ac(a2-3)Gal(b1-4)GlcNAc(b1-6)[Neu5Ac(a2-3)Gal(b1-3)]GalNAc
Summary of the method: as §1

[5] = target: Neu5Ac(a2-3)Gal(b1-4)GlcNAc6S
Summary of the method: as §1

[6] = target: Neu5Ac(a2-3)Gal(b1-4)[Fuc(a1-3)]GlcNAc
Summary of the method: as §1

[7] = target: Neu5Ac(a2-3)Gal(b1-4)[Fuc(a1-3)]GlcNAc(b1-2)Man
Summary of the method: as §1

[8] = target: Neu5Ac(a2-3)Gal(b1-4)[Fuc(a1-3)]GlcNAc(b1-3)Gal
Summary of the method: as §1

[9] = target: Neu5Ac(a2-3)Gal(b1-4)[Fuc(a1-3)]GlcNAc(b1-3)Gal(b1-4)GlcNAc
Summary of the method: as §1

[10] = target: Neu5Ac(a2-3)Gal(b1-4)[Fuc(a1-3)]GlcNAc(b1-3)Gal(b1-4)[Fuc(a1-3)]GlcNAc(b1-3)Gal(b1-4)[Fuc(a1-3)]GlcNAc
Summary of the method: as §1

[11] = target: Neu5Ac(a2-3)Gal(b1-4)[Fuc(a1-3)]GlcNAc(b1-3)GalNAc
Summary of the method: as §1

[12] = target: Neu5Ac(a2-3)Gal(b1-4)[Fuc(a1-3)]GlcNAc(b1-6)[Gal(b1-3)]GalNAc
Summary of the method: as §1

[13] = target: Neu5Ac(a2-3)Gal(b1-4)[Fuc(a1-3)]GlcNAc(b1-6)[Neu5Ac(a2-3)Gal(b1-3)]GalNAc
Summary of the method: as §1

[14] = target: Neu5Ac(a2-3)Gal(b1-4)[Fuc(a1-3)]GlcNAc6S
Summary of the method: as §1

[15] = target: Neu5Ac(a2-3)Gal6S(b1-4)GlcNAc
Summary of the method: as §1

[16] = target: Neu5Ac(a2-3)Gal6S(b1-4)[Fuc(a1-3)]GlcNAc
Summary of the method: as §1

[17] = target: Neu5Ac(a2-3)GalNAc
Summary of the method: as §1

[18] = target: Neu5Ac(a2-3)GalNAc(b1-4)GlcNAc
Summary of the method: as §1

[19] = target: Neu5Ac(a2-3)[GalNAc(b1-4)]Gal(b1-4)Glc
Summary of the method: as §1

[20] = target: Neu5Ac(a2-3)[GalNAc(b1-4)]Gal(b1-4)GlcNAc
Summary of the method: as §1

[21] = target: Neu5Ac(a2-3)[GalNAc(b1-4)]Gal(b1-4)GlcNAc(b1-3)GalNAc
Summary of the method: as §1

[22] = target: Neu5Ac(a2-3)[Neu5Ac(a2-6)]GalNAc
Summary of the method: as §1

B1: Dectin2 (Homo sapiens), Q6EIG7 (protein)
chain: MMQEQQPQSTEKRGWLSLRLWSVAGISIALLSACFIVSCVVTYHFTYGETGKRLSELHSYHSSLTCFSEGTKVPAWGCCPASWKSFGSSCYFISSEEKVWSKSEQNCVEMGAHLVVFNTEAEQNFIVQQLNESFSYFLGLSDPQGNNNWQWIDKTPYEKNVRFWHLGEPNHSAEQCASIVFWKPTGWGWNDVICETRRNSICEMNKIYL
glycan array binding signal (z-score) [1]: -0.192 | glycan array binding signal (z-score) [2]: -0.205 | glycan array binding signal (z-score) [3]: 0.201 | glycan array binding signal (z-score) [4]: -0.195 | glycan array binding signal (z-score) [5]: -0.201 | glycan array binding signal (z-score) [6]: -0.202 | glycan array binding signal (z-score) [7]: -0.193 | glycan array binding signal (z-score) [8]: -0.198 | glycan array binding signal (z-score) [9]: -0.132 | glycan array binding signal (z-score) [10]: -0.098 | glycan array binding signal (z-score) [11]: -0.099 | glycan array binding signal (z-score) [12]: -0.113 | glycan array binding signal (z-score) [13]: -0.104 | glycan array binding signal (z-score) [14]: -0.192 | glycan array binding signal (z-score) [15]: -0.173 | glycan array binding signal (z-score) [16]: -0.193 | glycan array binding signal (z-score) [17]: 0.723 | glycan array binding signal (z-score) [18]: -0.168 | glycan array binding signal (z-score) [19]: -0.18 | glycan array binding signal (z-score) [20]: -0.176 | glycan array binding signal (z-score) [21]: -0.049 | glycan array binding signal (z-score) [22]: 0.342
